In the BET-seq Pho4 binding data (Le et al. 2018):
The other results are listed elsewhere or left out. The energies were worked out here from pooled read counts, against the library average; single values are noisy.

Each sequence was assayed against T1, Pho4 (S. cerevisiae) (UniProt P07270) (assay: relative binding free energy (BET-seq); higher = weaker binding). Details: reference: library average.
T1 sequence: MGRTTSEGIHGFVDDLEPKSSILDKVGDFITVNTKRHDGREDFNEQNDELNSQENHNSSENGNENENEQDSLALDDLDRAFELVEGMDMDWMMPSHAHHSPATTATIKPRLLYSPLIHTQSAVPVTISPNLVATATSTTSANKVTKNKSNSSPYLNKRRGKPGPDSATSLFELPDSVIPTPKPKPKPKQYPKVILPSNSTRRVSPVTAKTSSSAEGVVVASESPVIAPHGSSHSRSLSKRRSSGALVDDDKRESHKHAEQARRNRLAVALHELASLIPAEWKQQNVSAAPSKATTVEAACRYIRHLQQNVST

| Sequence | relative binding free energy [kcal/mol] |
| --- | --- |
| TTTATCACGTGCGGCG | 0.26 |
| GGTGTCACGTGGTGAC | 0.11 |
| CTGTACACGTGGATTG | 0.03 |
| AGGCACACGTGATTGG | 0.17 |
| AGGGGCACGTGTAATT | 0.01 |
| AGACGCACGTGTTATT | -0.01 |
| GAGGGCACGTGTTGAC | 0 |
| ACTTTCACGTGTTATG | 0.19 |
| TATAGCACGTGACGGT | -0.07 |
| AGCTGCACGTGTGTTG | -0.08 |
| TGGGCCACGTGCATGT | -0.2 |
| AATTTCACGTGGGTAT | 0.18 |
| ATGATCACGTGTGTAT | 0.13 |
| TAGGTCACGTGGGCTT | -0.05 |
| TGTGTCACGTGCAGTG | 0 |
| GAGGACACGTGGTGGC | 0.01 |
| ATGGACACGTGGTTTT | 0.14 |
| ATGCACACGTGGTTGT | -0.06 |
| GGAGACACGTGAATGT | 0.4 |
| TAGTTCACGTGTTATA | 0.31 |
| TGGAACACGTGCGGGT | 0.04 |
| GTTGTCACGTGGTGCT | 0.06 |
| CTCGGCACGTGGGTGT | -0.38 |
| ATGAGCACGTGTATAT | -0.1 |
| GAGCGCACGTGGTTGA | -0.12 |

| Sequence | relative binding free energy [kcal/mol] |
| --- | --- |
| TAACGCACGTGTAGGA | -0.01 |
| TTCCGCACGTGTTGTA | 0.04 |
| ACATGCACGTGCGGGG | -0.03 |
| GGGTACACGTGTTCTG | 0.12 |
| AGTTGCACGTGGTCGC | -0.13 |
| GAGCTCACGTGGGTGT | 0.16 |
| TGTAGCACGTGCTGAT | -0.08 |
| CAGGGCACGTGGTTTG | -0.15 |
| TGTTTCACGTGGACTT | 0.33 |
| TTTTCCACGTGGGTGA | -0.18 |
| GTGGCCACGTGGGTTA | -0.16 |
| GGATTCACGTGCGGAA | 0.35 |
| TTCCTCACGTGGGGAT | 0.24 |
| TGGGGCACGTGATATT | -0.02 |
| GGTGCCACGTGTATGG | 0.05 |
| GAATGCACGTGGATGT | 0.06 |
| CGTAGCACGTGGCTTG | -0.21 |
| GTGATCACGTGGTCTT | -0.04 |
| AGGAGCACGTGTTAGT | 0 |
| AATCTCACGTGGTTAT | 0.34 |
| GGCTGCACGTGATTTT | 0.29 |
| AGTCTCACGTGACGGG | 0.4 |
| ATGGTCACGTGAGCTA | 0.17 |
| ATTATCACGTGTTTAA | 0.21 |
| GAGGTCACGTGAGAAT | 0.49 |

| Sequence | relative binding free energy [kcal/mol] |
| --- | --- |
| TTGTACACGTGCTTGG | -0.01 |
| AGATTCACGTGTTATG | 0.18 |
| ATTCACACGTGTTATG | 0.19 |
| TGCATCACGTGATGTG | 0.08 |
| TGTTTCACGTGAGTGG | 0.32 |
| GGGAGCACGTGAATTG | 0.24 |
| GTAGGCACGTGTGCGA | 0.02 |
| CAAAGCACGTGTAGTG | 0.08 |
| AGGGTCACGTGTGTCA | 0.14 |
| ATTGTCACGTGGTGTA | -0.07 |
| ATTAGCACGTGTTGCT | -0.23 |
| AGGTTCACGTGCGTAG | 0.15 |
| TGTCACACGTGGGGCG | -0.09 |
| TTGAACACGTGGATTT | 0.16 |
| TTGATCACGTGTAGTG | 0.14 |
| TGGTGCACGTGGCAGA | -0.26 |
| AGACGCACGTGGGGTT | -0.23 |
| ATGGGCACGTGTGCAT | 0 |
| TCTATCACGTGAGTGG | 0.28 |
| TTTTGCACGTGGGGAG | -0.14 |
| AATATCACGTGGCGTG | 0.1 |
| AGTGGCACGTGATTTG | 0.02 |
| GGTAGCACGTGAGAGT | 0.24 |
| ATTATCACGTGATCGG | 0.29 |
| AAGTGCACGTGGTAGT | -0.15 |

| Sequence | relative binding free energy [kcal/mol] |
| --- | --- |
| TGGGACACGTGTTCGG | -0.03 |
| CTAATCACGTGTGATT | 0.26 |
| GGTATCACGTGGTGAA | 0.22 |
| GGTAGCACGTGTAAGA | -0.01 |
| GTAACCACGTGTGTGT | -0.06 |
| TGGTACACGTGTTTCT | 0.11 |
| ATATACACGTGGGGAG | -0.22 |
| GTACTCACGTGTTAAG | 0.32 |
| AGAGGCACGTGATGTT | -0.08 |
| ATGAACACGTGGTAGT | -0.01 |
| TCTAGCACGTGGGAGG | -0.1 |
| GTGTGCACGTGAGTGG | 0.28 |
| TTGCACACGTGTGGTT | 0.15 |
| TATGTCACGTGTACGT | 0.06 |
| CAGAGCACGTGTGCGG | -0.07 |
| AGGCACACGTGTTTGT | -0.01 |
| TCGTGCACGTGGTGAA | -0.12 |
| GTAGTCACGTGTTTCG | 0.08 |
| GTGGTCACGTGGAAGC | 0.2 |
| AATTTCACGTGAACTG | 0.4 |
| GTGGTCACGTGGCAGC | 0.1 |
| CTTGTCACGTGAAAGG | 0.27 |
| TGCCTCACGTGGTAGG | -0.01 |
| TTTACCACGTGGGGGT | -0.21 |
| TTCTTCACGTGAGTGG | 0.53 |

| Sequence | relative binding free energy [kcal/mol] |
| --- | --- |
| TAAGGCACGTGTAAAG | -0.1 |
| GGTGTCACGTGAGGGT | 0.26 |
| GTGTTCACGTGAAGTA | 0.31 |
| ATTTCCACGTGTGGGA | 0.04 |
| GGTAGCACGTGCCGGT | -0.05 |
| ATTGGCACGTGCTCGT | -0.29 |
| AGGTACACGTGCGTGA | 0.02 |
| AATAGCACGTGTTTTG | -0.17 |
| TTACTCACGTGTGGTA | 0.07 |
| TGAGACACGTGGGGCT | -0.08 |
| ATTTACACGTGATAAG | 0.22 |
| CATTTCACGTGTTGTA | 0.16 |
| ACGTGCACGTGGTGGA | -0.13 |
| TAGAGCACGTGATTAT | 0.04 |
| TTGTCCACGTGAAATT | 0.36 |
| GTATGCACGTGATGAG | -0.13 |
| ATGTGCACGTGGGGCT | -0.19 |
| GTATACACGTGCGGCT | 0.21 |
| GGTCGCACGTGATTGT | 0.2 |
| TGAGGCACGTGCTGTT | -0.18 |
| AGCAGCACGTGTTAGG | -0.02 |
| TTGTACACGTGGACTT | 0.22 |
| AGGGCCACGTGTTTAG | -0.03 |
| ATGTTCACGTGTGCCT | 0.18 |
| GGCGACACGTGGTAGT | 0.01 |

| Sequence | relative binding free energy [kcal/mol] |
| --- | --- |
| ACGTTCACGTGGTGCG | 0.05 |
| GTCTACACGTGTAGTG | 0.19 |
| GGGGCCACGTGTTTGT | 0.05 |
| TTTAGCACGTGGGTTT | -0.16 |
| ATTGTCACGTGGGGGG | -0.09 |
| GTCTGCACGTGTGATT | 0.29 |
| GGACACACGTGTGTTG | 0.07 |
| GGGATCACGTGGGTTT | 0.07 |
| TAGTTCACGTGCGTTA | 0.09 |
| CTTGGCACGTGACTGT | 0 |
| AGGCGCACGTGGCGCG | -0.21 |
| GTTTGCACGTGTAAGA | 0.11 |
| AAATTCACGTGGGGGC | 0.29 |
| TGTTGCACGTGCAAGA | 0.01 |
| TATGTCACGTGAAGCT | 0.17 |
| CGCGCCACGTGAGGGG | 0.06 |
| GTAGGCACGTGTATAT | 0.06 |
| GGAGGCACGTGTGAAA | 0.16 |
| GGTTTCACGTGAAGGC | 0.24 |
| GGATGCACGTGGTTCT | -0.08 |
| ATTGGCACGTGGACGT | -0.1 |
